Data on 25 compounds can be found in PubChem BioAssay AID1508624 (National Center for Advancing Translational Sciences (NCATS), 2021).

The whole screen tested about 48,000 compounds, of which about 120 (0.25%) were called active. Roughly 4% stayed inconclusive and do not appear here. Calls come from the whole dose curve; as a rule, active = well fitted activation curve with a large enough effect; inconclusive = small, poorly fitted or top-dose-only effect, or another doubt; inactive = no such curve, though single readings can be large or run the other way. Only a part is listed here, and it is no random draw. The source gives no active or inactive call for entries shown without one.

This experiment can be described thus: Primary qHTS for Identification of Small Molecule Activators of Huntingtin-Antisense Promoter Activity. Note: nearly all actives have a fitted effect of over 55% in size. To be noted: HEK293 HTT-AS promoter firefly luciferase reporter, 24 h; activity change, positive = activation: at 57.5 µM (top of the series), percent change from vehicle, -100% = no light. The gist of the method: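 HEK293 luciferase promoter-reporter cells (2,500/well) plated 24 h, then compounds added at up to 57.5 uM final for 24 h at 37 °C. Firefly luminescence by Dual-Glo, normalized to vehicle (0%) and zero RLU (-100%).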
In general terms: In qHTS, concentration-response curves come from the screen itself.
As to `CC1CCC(N2CC(=O)N(C3CCCCC3)C(c3ccc(F)cc3)C2=O)CC1` (stereo not given), the activity change, positive = activation was -9.24%.
The value for `CC1Cc2cc(S(=O)(=O)NCCc3ccccc3)ccc2N1C(=O)C1CCC1` (stereo not given) was -33.3%.
To `Cc1ccc(-c2noc(CCCC(=O)NCc3ccco3)n2)cc1` belongs inactive: -60.7%; to `CCOc1ccc(NC(=O)/C=C\C(=O)N(c2ccc(C(C)C)cc2)C(C(=O)NCc2ccco2)c2ccc(F)cc2)cc1` (stereo not given), -33.7%; to `O=C(NCCc1nc2ccccc2n1Cc1ccc(F)cc1)c1ccco1`, -16.1%.
The value for `CS(=O)(=O)N1CCC(N2CCN(Cc3ccccc3)C(=O)C2=O)CC1` was 2.77%; that for `O=S(=O)(Nc1cccc(-c2ccc(N3CCCCCC3)nn2)c1)c1cccc(F)c1` was 51.1%; that for `COc1cc(C)c(C)cc1S(=O)(=O)Nc1cccc(-c2ccc(N3CCOCC3)nn2)c1` was 3.85%.
On to `CC(=O)N1CCc2cc(S(=O)(=O)CCC(=O)NCc3ccc(Cl)cc3)ccc21`, for which the activity change, positive = activation is -36.3%.
To `O=C(Nc1cccnc1Cl)c1cc(-c2cccc(Cl)c2)on1` belongs 8.65%.
To `COc1ccc(OC)c(NC(=O)/C=C/c2ccc(C)o2)c1` belongs 18.1%.
With `CCc1cccc(C)c1NC(=O)c1cccc(C(=O)Nc2c(C)cccc2CC)c1`, the activity change, positive = activation was -29.9%.
To `CC(C)n1c(=N)c(C(=O)NCc2ccccc2)cc2c(=O)n3ccccc3nc21` belongs inactive: -20.3%; to `CC(=O)c1cccc(NC(=O)c2noc3c2CCCC3)c1`, 76.6%.
With `CCc1nn(CC(=O)NCCc2ccc(OC)cc2OC)c(=O)c2cc3c(OC)cccc3n12`, the activity change, positive = activation is -17.9%.
The value for `Cc1ccc(C)c(N2CCN(CCCNC(=O)c3cnn(-c4ccccc4Cl)c3C3CCN(C(=O)OC(C)(C)C)CC3)CC2)c1` was inactive: -30.5%; that for `Cc1c[nH]c(C=C2C(=O)Nc3ccccc32)c1CCC(=O)O` was inactive: 5.63%.
To `COc1ccc(OC(=O)N(CC(=O)O)Cc2ccc(OCCc3nc(-c4ccccc4)oc3C)cc2)cc1` belongs inactive: -10.2%; to `CCc1cc(=O)oc2c3c(c(Cl)cc12)OCN(Cc1cccc(OC)c1)C3`, -9.31%; to `CCS(=O)(=O)N1N=C(c2ccc(C)cc2)CC1c1cc2ccc(OC)cc2nc1Cl` (stereo not given), -22.3%.
To `CCc1cc(Nc2nccc(-c3c(-c4ccc(OC)c(C(=O)Nc5c(F)cccc5F)c4)nc4ccccn34)n2)c(OC)cc1N1CCC(N2CCN(S(C)(=O)=O)CC2)CC1` belongs inactive: -0.352%; to `Cc1ccc(C2Nc3ccccc3-n3c(-c4ccccc4)c4c(=O)n(C)c(=O)n(C)c4c32)o1` (stereo not given), -2.87%; to `O=C(Cn1c(=O)n(Cc2ccc3c(c2)OCO3)c(=O)c2ccc(C(=O)NC3CCCCC3)cc21)Nc1ccccc1F`, inactive: -17.5%.
For `CSc1ccc(CNC(=O)c2cc3c(=O)n(Cc4ccco4)ccc3nc2C)cc1`, the activity change, positive = activation was -15.3%.
The value for `COc1ccccc1OCCn1c(-c2ccc(Br)cc2)nc2ccccc2c1=O` was 5.48%.
